The list shows a part of the results. The list includes weakly bound sequences.

The assay deals with MaxL homodimer (UniProt P61244). In words: universal protein-binding microarray (PBM). The note with it: PBS-based mixture, 10 nM His-tagged protein dimer, 2% milk, 200 ng/uL BSA, 50 ng/uL salmon testes DNA, 0.02% TX-100; detection with Alexa 488 anti-His …; high values mean tight binding; most listed sequences are background and not binding sites; double strand, one strand shown.
Sequence of UniProt P61244 (P61244 whole entry): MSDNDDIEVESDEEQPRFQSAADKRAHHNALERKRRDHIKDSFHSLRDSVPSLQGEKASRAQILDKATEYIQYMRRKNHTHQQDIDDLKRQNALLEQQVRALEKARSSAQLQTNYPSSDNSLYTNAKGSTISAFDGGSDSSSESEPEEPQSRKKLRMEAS
For the sequence GCGAACCA, the binding signal (normalized occupancy) is 0.0723.

With CCAGAGCG, the binding signal (normalized occupancy) was determined as 0.0637. Under ATCTGAAG stands 0.0709; under CAGTCTAC, 0.0718; under CGCCAGTC, 0.0709. In the case of GATAAACC, the binding signal (normalized occupancy) amounted to 0.0804. As to CCAGACTC, the binding signal (normalized occupancy) was found to be 0.0718. For ATGCCGGC, the binding signal (normalized occupancy) was determined as 0.0759.

Take GAGAAAAC: the binding signal (normalized occupancy) was determined as 0.0721. Regarding AACCGCAC, the binding signal (normalized occupancy) is 0.0807.

Turning to GCTGAACC, the binding signal (normalized occupancy) came to 0.0691. AATAAATT: the binding signal (normalized occupancy) was determined as 0.0775. In the case of CGGAATAC, the binding signal (normalized occupancy) was determined as 0.0715. For AATTCACG, the binding signal (normalized occupancy) turned out to be 0.0771. Under GGCATGAA stands 0.081; under AAAATAGC, 0.0757; under ATGATTCC, 0.0866. Under GTCCCGTA stands 0.0722; under AGGGGGAG, 0.0706; under GAGCGCCA, 0.0704. Turning to ACCCCCTG, the binding signal (normalized occupancy) came to 0.0802.

For the sequence CCCGTGCG, the binding signal (normalized occupancy) came to 0.0872. With CCACCAAC, the binding signal (normalized occupancy) is 0.0786. With AATAAGTA, the binding signal (normalized occupancy) was determined as 0.0754. In the case of AGATAGAA, the binding signal (normalized occupancy) was 0.0749. On to TGATTGAA, for which the binding signal (normalized occupancy) is 0.0774. In the case of GATCTTGC, the binding signal (normalized occupancy) worked out at 0.0794.

For the sequence AACTTACA, the binding signal (normalized occupancy) was found to be 0.0744. Take GTGAACAA: the binding signal (normalized occupancy) was determined as 0.0768.

As for CAGTTGTA, the binding signal (normalized occupancy) amounted to 0.0739.

With GGAAACAC, the binding signal (normalized occupancy) worked out at 0.0759. In the case of TACGTCAA, the binding signal (normalized occupancy) worked out at 0.0836.

Take ACTTTCAA: the binding signal (normalized occupancy) amounted to 0.0724. With CACACGTG, the binding signal (normalized occupancy) was found to be 0.553. With ATAACGGG, the binding signal (normalized occupancy) is 0.0747.

Regarding ATCTCTGC, the binding signal (normalized occupancy) is 0.0737. Consider TAACTTCA, for which the binding signal (normalized occupancy) was 0.0746. Consider ACGAAGGC, for which the binding signal (normalized occupancy) was found to be 0.071. GGCTACAC: the binding signal (normalized occupancy) amounted to 0.0745. On to ACGATTCT, for which the binding signal (normalized occupancy) came to 0.0779. Take CTACTGTC: the binding signal (normalized occupancy) was 0.0719. Then AGGAGGAG, with 0.0756; and AGGCGATC, with 0.0722; and GCTGTGAA, with 0.0762. Regarding GTGCACAA, the binding signal (normalized occupancy) was determined as 0.0767. Then ACCTCATA, with 0.0788.

Regarding ATCCATGA, the binding signal (normalized occupancy) came out at 0.0864.

On to ACATCAAA, for which the binding signal (normalized occupancy) is 0.0775. For the sequence CGAGACTC, the binding signal (normalized occupancy) is 0.0777. Regarding ACAGAGCG, the binding signal (normalized occupancy) was determined as 0.0698. As to ACAATCAT, the binding signal (normalized occupancy) was 0.0819. AGAGAGCT: the binding signal (normalized occupancy) is 0.0689.

AAAAGCGC: the binding signal (normalized occupancy) is 0.0714. Under AAAACTAC stands 0.0811; under CTGGCACA, 0.0744; under ATTTGAGG, 0.0731. In the case of AGGAAGTA, the binding signal (normalized occupancy) came out at 0.0706. Turning to GTACCTTA, the binding signal (normalized occupancy) was determined as 0.0797. AAAAGTAT: the binding signal (normalized occupancy) turned out to be 0.0802.

Consider CGCCTGAC, for which the binding signal (normalized occupancy) stood at 0.078. As to GTTCATGA, the binding signal (normalized occupancy) turned out to be 0.0798. Under ATGTACTA stands 0.0841; under TAGTGCCA, 0.0728. Under GCGGCAAC stands 0.0698; under CGTAATGA, 0.0798; under AGCTCTCG, 0.067. On to TCTGACCA, for which the binding signal (normalized occupancy) turned out to be 0.0726. Consider GTAAGCAA, for which the binding signal (normalized occupancy) is 0.0832. Then AGTGTGCA, with 0.0821. AAACTCTT: the binding signal (normalized occupancy) stood at 0.0711. As for GACCCCTC, the binding signal (normalized occupancy) is 0.0715. Take AATATTAA: the binding signal (normalized occupancy) was determined as 0.0815.

Regarding CAACTCGC, the binding signal (normalized occupancy) is 0.0732. In the case of CCCGTCAA, the binding signal (normalized occupancy) turned out to be 0.0675.

Regarding CGCCCATA, the binding signal (normalized occupancy) was 0.0775. Regarding ATGCTGGA, the binding signal (normalized occupancy) turned out to be 0.0806. Under ATGCACGC stands 0.111. For ATTATCCA, the binding signal (normalized occupancy) worked out at 0.0846.

Regarding ACCAACCG, the binding signal (normalized occupancy) was determined as 0.0755. Turning to ATACCAAT, the binding signal (normalized occupancy) worked out at 0.0816. In the case of GTGCCTGA, the binding signal (normalized occupancy) stood at 0.0714.

As for CCTCACAC, the binding signal (normalized occupancy) turned out to be 0.082.

As to AAGCCCTG, the binding signal (normalized occupancy) was 0.07. Then GATATTGA, with 0.0778; and CATGAGCA, with 0.0902; and CTGACCAG, with 0.066. Regarding AATACTGT, the binding signal (normalized occupancy) amounted to 0.0767. Under AGGGTTCA stands 0.0737; under AGGTCAAA, 0.0707; under CTACACAG, 0.0788.

Consider ATAAACCA, for which the binding signal (normalized occupancy) stood at 0.0758. As for CCGGGAAC, the binding signal (normalized occupancy) is 0.0715. Take TATGCAAA: the binding signal (normalized occupancy) came to 0.0776. As for ACCGGTAA, the binding signal (normalized occupancy) was 0.0723. Regarding ATAATGCC, the binding signal (normalized occupancy) was 0.0813. In the case of CGACATAA, the binding signal (normalized occupancy) was found to be 0.0783. In the case of CAAAAGCG, the binding signal (normalized occupancy) came out at 0.0731. As to AATTGCAC, the binding signal (normalized occupancy) came out at 0.0813. As to CCGGGTGC, the binding signal (normalized occupancy) came out at 0.0718. As for GTGGTAGA, the binding signal (normalized occupancy) is 0.0878. Then AATAGTGG, with 0.078; and CCTCCCAC, with 0.0815; and CAAAGCAG, with 0.0675. On to AAATCCAG, for which the binding signal (normalized occupancy) was 0.0745.

In the case of AATCATAG, the binding signal (normalized occupancy) was determined as 0.0777. Under ACGAATTA stands 0.0712.

AAGTCGAA: the binding signal (normalized occupancy) came out at 0.0712.

Regarding GCATCTAC, the binding signal (normalized occupancy) came to 0.0779.

Consider AACACTCG, for which the binding signal (normalized occupancy) was 0.0722.

For the sequence CTCAATAC, the binding signal (normalized occupancy) was 0.0799.

Regarding CACTTGAA, the binding signal (normalized occupancy) was found to be 0.0769.

For the sequence ACGCAATC, the binding signal (normalized occupancy) amounted to 0.0766. Then ACGCTGGC, with 0.0794. In the case of AATCTTTA, the binding signal (normalized occupancy) worked out at 0.0794. Turning to TATCAGAA, the binding signal (normalized occupancy) came out at 0.0755. Under ATCAATAA stands 0.0781.

ACGGCCCG: the binding signal (normalized occupancy) was determined as 0.0694.

For the sequence ATGGATAG, the binding signal (normalized occupancy) was 0.081. Consider GGTACGAC, for which the binding signal (normalized occupancy) came out at 0.0721.

Consider CTGATCGC, for which the binding signal (normalized occupancy) was determined as 0.0732. ACCTTGAA: the binding signal (normalized occupancy) was 0.0764. As to GGAGACCC, the binding signal (normalized occupancy) was found to be 0.0788. Consider ATGACCGG, for which the binding signal (normalized occupancy) stood at 0.0725. Then CGGTGATA, with 0.0769; and AACAGCAA, with 0.0752; and TCGATAGA, with 0.0792. Under CAGGCGCC stands 0.0679; under ACATCTAT, 0.0816. Then CCGTGTAG, with 0.0808; and CACTCGTC, with 0.0748.

As for TAGTCTGA, the binding signal (normalized occupancy) turned out to be 0.0685. Under ATGCAGCA stands 0.0843; under CTCGTACC, 0.0723; under CACTCTAC, 0.0797. Regarding TCACGACA, the binding signal (normalized occupancy) came out at 0.0783.

Regarding ACTGAAGT, the binding signal (normalized occupancy) is 0.0686.

Regarding CGGTTCAC, the binding signal (normalized occupancy) is 0.0724.

In the case of CGTACTGC, the binding signal (normalized occupancy) stood at 0.0763. As to ATCTCGTC, the binding signal (normalized occupancy) was 0.0708. Take AACTCCCG: the binding signal (normalized occupancy) was 0.0766. Turning to AATCGCAA, the binding signal (normalized occupancy) was 0.0674. Then TACAAATA, with 0.0817.

Regarding GCAATGCC, the binding signal (normalized occupancy) worked out at 0.0753.

For AAGGAGTA, the binding signal (normalized occupancy) was found to be 0.0736.

Regarding GTGTTTCA, the binding signal (normalized occupancy) worked out at 0.0829. Regarding CGCAATCA, the binding signal (normalized occupancy) came out at 0.0744. With GTATTACA, the binding signal (normalized occupancy) was 0.0849.

On to CAAACAGG, for which the binding signal (normalized occupancy) was 0.0747. On to AAGAAGAC, for which the binding signal (normalized occupancy) amounted to 0.08. Regarding AATGGGGC, the binding signal (normalized occupancy) worked out at 0.0733. For CTGCGCAC, the binding signal (normalized occupancy) was 0.0795. As to CACGACGA, the binding signal (normalized occupancy) is 0.0811. For the sequence AAAACGCC, the binding signal (normalized occupancy) amounted to 0.069. In the case of CAGGACCG, the binding signal (normalized occupancy) amounted to 0.0711. With GCACGCTA, the binding signal (normalized occupancy) turned out to be 0.101. Regarding CGGCCGGA, the binding signal (normalized occupancy) was found to be 0.0724. In the case of AATCCTCC, the binding signal (normalized occupancy) came out at 0.0749.

Take AGAGGAAA: the binding signal (normalized occupancy) came out at 0.0733. Turning to GCAATGAA, the binding signal (normalized occupancy) came out at 0.0729. Regarding CAGGCACG, the binding signal (normalized occupancy) came out at 0.076. Take ATCTAATG: the binding signal (normalized occupancy) came out at 0.082.

Turning to ACCTTGTC, the binding signal (normalized occupancy) was determined as 0.0761.

For the sequence CACGCGGG, the binding signal (normalized occupancy) is 0.145. As for ACTAGAAC, the binding signal (normalized occupancy) was found to be 0.0772.

With GCAGCCTA, the binding signal (normalized occupancy) came out at 0.0708.

As for TGTAGAAA, the binding signal (normalized occupancy) came out at 0.0794. Then CAGAACTG, with 0.0637; and CTTCTCTC, with 0.0719. With CCATACAC, the binding signal (normalized occupancy) came out at 0.0849. Consider AGTGCACA, for which the binding signal (normalized occupancy) came out at 0.0838. For the sequence CAATACGG, the binding signal (normalized occupancy) was 0.0728. Take GTGCTGGA: the binding signal (normalized occupancy) amounted to 0.0813.

These data come from PMC4242493.
